Measured values published in PMC4336329 (PLoS ONE, 2015).
In all, about 310,000 compounds went through this assay and about 2,200 (0.71%) showed an effect of 50% or more. Effects have a minus sign here. This is one part of the list.

Target: human ether-à-go-go-related gene (hERG) potassium channel (human, UniProt Q12809)
Assay: primary screen, population patch clamp on CHO cells stably expressing hERG

Chain of human ether-à-go-go-related gene (hERG) potassium channel (Q12809 whole entry, looked up): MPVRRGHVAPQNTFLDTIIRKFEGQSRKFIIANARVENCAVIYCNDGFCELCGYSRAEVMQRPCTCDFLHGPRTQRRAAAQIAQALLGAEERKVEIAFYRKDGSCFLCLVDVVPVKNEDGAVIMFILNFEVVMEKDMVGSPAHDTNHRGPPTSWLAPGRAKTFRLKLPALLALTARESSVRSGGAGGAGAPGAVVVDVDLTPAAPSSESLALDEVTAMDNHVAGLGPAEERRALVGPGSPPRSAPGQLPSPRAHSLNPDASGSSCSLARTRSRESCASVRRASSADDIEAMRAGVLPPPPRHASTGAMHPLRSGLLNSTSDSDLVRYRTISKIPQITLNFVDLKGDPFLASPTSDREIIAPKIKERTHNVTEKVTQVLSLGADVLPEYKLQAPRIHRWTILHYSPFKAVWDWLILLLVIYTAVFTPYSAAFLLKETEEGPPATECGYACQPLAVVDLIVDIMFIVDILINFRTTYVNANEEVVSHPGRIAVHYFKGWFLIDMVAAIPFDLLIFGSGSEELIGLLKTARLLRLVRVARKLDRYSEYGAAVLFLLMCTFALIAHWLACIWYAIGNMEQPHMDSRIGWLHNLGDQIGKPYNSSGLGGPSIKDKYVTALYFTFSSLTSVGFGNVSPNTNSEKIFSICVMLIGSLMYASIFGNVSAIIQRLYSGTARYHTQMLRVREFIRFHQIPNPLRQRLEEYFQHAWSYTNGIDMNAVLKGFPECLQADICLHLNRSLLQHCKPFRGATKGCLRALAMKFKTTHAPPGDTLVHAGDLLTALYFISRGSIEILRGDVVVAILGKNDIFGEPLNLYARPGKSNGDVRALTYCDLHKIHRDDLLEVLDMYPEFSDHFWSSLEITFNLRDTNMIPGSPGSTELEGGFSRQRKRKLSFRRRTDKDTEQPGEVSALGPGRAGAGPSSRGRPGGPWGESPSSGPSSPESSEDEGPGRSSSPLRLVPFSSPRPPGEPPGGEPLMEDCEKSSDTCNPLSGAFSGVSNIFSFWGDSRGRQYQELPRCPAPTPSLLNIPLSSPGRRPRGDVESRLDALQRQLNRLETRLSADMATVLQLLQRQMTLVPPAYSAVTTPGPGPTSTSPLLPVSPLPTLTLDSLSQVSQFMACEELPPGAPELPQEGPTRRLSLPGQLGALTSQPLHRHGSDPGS

Structure (SMILES) | hERG current change (%, negative = inhibition) at 1uM [%]
COc1ccc(Cl)cc1Nc1nc(NCCO)nc(N2CCCCC2)n1 | 2.86
CC(C)Sc1nc2c(c(=O)n(C)c(=O)n2C)n1Cc1ccc(Cl)cc1 | 12.7
CC1=CC(C)(C)NC(=S)N1C(C)c1ccccc1 (stereo not drawn) | 16.3
COc1ccc2c(c1)C(SCC(=O)NCCc1ccc(Cl)cc1)CC(C)(C)O2 (stereo not drawn) | 9.04
CCOC(=O)Cc1csc(NS(=O)(=O)c2ccc(F)cc2)n1 | 14.2
Nc1nnc(-c2cccc([N+](=O)[O-])c2)s1 | 5.39
Cc1c(C=O)c2ccccc2n1CC(=O)NCc1ccccc1 | 20.1
CCOC(=O)CSc1nnc(CNC(=O)c2cccs2)n1-c1cccc(C)c1 | -0.396
O=C(O)CCCC(=O)Nc1ccccc1Br | 7.35
CCCCOCCCNC(=O)CC(C)c1ccccc1 (stereo not drawn) | 11.6
CCN(CC)C(=O)c1ccc(-c2nnc(Nc3ccc(C(=O)N(C)C)cc3)c3ccccc23)cc1 | 4.81
CC(C)(C)NC(=O)C(c1ccccc1)N(C(=O)c1csnn1)C1CC1 (stereo not drawn) | 5.85
CCOC(=O)C1CCCN(C(=O)Cc2c(F)cccc2Cl)C1 (stereo not drawn) | 14.1
CCC(=O)C1CCCN(C(=O)c2ccc(OC3CCN(C(=O)c4cccnc4)CC3)cc2)C1 (stereo not drawn) | 4.4
O=C(COc1ccccc1)Nc1nccs1 | 0.509
O=C(OCC(=O)N1CCOCC1)c1ccccc1Br | 17.3
COc1ccc(OCCC(=O)N2CCN(C)CC2)cc1.Cl | 17
O=CNCCCc1nc2ccccc2n1Cc1cccc2ccccc12 | -13.3
CCCCn1nc(C(=O)NNC(=O)c2ccncc2)c2ccccc2c1=O | 7.47
C=CCn1c(CC(C)(C)C)nc2ccccc21 | 7.91
O=C(COC(=O)c1ccco1)NC(c1ccccc1)c1ccccc1 | 5.02
Clc1ccc(Cl)c(OCCCCNCc2ccccc2)c1.O=C(O)C(=O)O | -6.63
COc1ccc(Cl)cc1NC(=S)NCc1ccccn1 | 12.6

Structure (SMILES) | hERG current change (%, negative = inhibition) at 1uM [%]
CCCc1ccc(OCCNC(=O)CC)cc1 | 6.36
CCC(C(=O)OC)n1cnc2c(nnn2-c2cccc(OC)c2)c1=O (stereo not drawn) | 1.98
O=C(NC1(Cc2ccccc2)CCN(Cc2ccc(-c3ccccc3)cc2)C1=O)c1ccccc1 (stereo not drawn) | 12.5
COc1cccc(C2/C(=C(/O)c3ccc4c(c3)CC(C)O4)C(=O)C(=O)N2c2nnc(C)s2)c1 (stereo not drawn) | 10.2
CCOc1ccc(CN2CCCC(C(=O)c3ccccc3OC)C2)cc1 (stereo not drawn) | -74.1
Cc1[nH]n(-c2ccccc2)c(=O)c1/C=N/NC(=O)c1cccc(F)c1 | 15.4
COc1ccc(Br)cc1C(=O)N/N=C/c1ccc([N+](=O)[O-])cc1 | 20.9
CC(C)c1csc(CN2CCN(Cc3ccc(F)c(F)c3)C(CCO)C2)n1 (stereo not drawn) | 2.23
CCC/C=C(\CCC)C(NC(=O)OCC(C)C)c1ccc(C(=O)OC)cc1 (stereo not drawn) | 6.54
Cn1c(CSCc2ccccc2)nnc1SCC(=O)Nc1nccs1 | -17.6
NC(=O)N/N=C/c1ccccc1OCC(=O)NCc1ccccc1 | 2.35
O=C(O)CCn1c(=O)[nH]c2ccccc2c1=O | 22.8
COc1ccc(Br)cc1CN(C)C(=O)c1ccccc1OCc1c(C)noc1C | 5.97
COc1cccc(/C=N/NC(N)=S)c1OCc1ccccc1Cl | 0.712
O=C(C1=C[C@@H](c2coc3ccccc3c2=O)C[C@@H](OCc2ccc(CO)cc2)O1)N1CCOCC1 | 0.983
O=C(Nc1ccccc1O)c1ccc2c(c1)C(=O)N(c1ccccc1)C2=O | 9.95
Cc1ccc(C(=O)OCC(=O)Nc2sccc2C(N)=O)cc1NC(=O)c1ccco1 | 17.2
NC(=O)c1ccsc1NC(=O)c1ccc(S(=O)(=O)N2CCCC2)cc1 | 1.07
CC(=O)Nc1ccc(/C=C/c2nc3ccccc3[nH]c2=O)cc1 | 13.8
CCn1c(=O)cc(SCC(=O)N2CCN(c3ccccc3F)CC2)c2ccccc21 | 9.89
O=C(Nc1ccc(OC(F)F)cc1)c1ccccn1 | 9.46
CCOc1ccccc1CN1CCNC(=O)C1CC(=O)NCc1ccccn1 (stereo not drawn) | -15.6
CCOC(=O)C(NC(=O)c1ccc(F)cc1)(Nc1sc2c(c1C(N)=O)CCC2)C(F)(F)F (stereo not drawn) | 15.8

Structure (SMILES) | hERG current change (%, negative = inhibition) at 1uM [%]
Cc1cccc(N(CC(=O)NCc2ccc(F)cc2)C(=O)c2csnn2)c1C | -18.1
CCOC(=O)C1=C(COC(=O)COc2ccc(OCC)cc2)NC(=O)NC1C (stereo not drawn) | 8.38
Cc1ccc(-c2noc(C3CCCCC3)n2)cc1 | 8.8
COc1ccc(C2N3CC(C)(C)CN23)cc1 (stereo not drawn) | 10.2
Cc1cc(C(=O)OCn2nnc3ccccc3c2=O)c(C)o1 | 4.93
CN(CC(=O)Nc1ccccc1Cl)C(=O)COC(=O)C1CC1 | 4.93
O=C(NCCN1CCOCC1)c1ccc2c(c1)N(Cc1ccccc1F)C(=O)c1ccccc1S2(=O)=O | 11.9
Cn1cccc1C(=O)NC(=O)COC(=O)c1ccc(O)cc1 | 7.5
CCC1CCCCN1S(=O)(=O)c1ccc(NC(=O)c2snnc2C)cc1 (stereo not drawn) | 11.5
CS(=O)(=O)N(CC(=O)N1CCC(C(N)=O)CC1)c1ccc(Cl)c(C(F)(F)F)c1 | 2.25
COc1cc(C)c(CN2CCC(Cc3ccccc3)CC2)cc1C | 9.96
COc1ccc(NC(=O)N2CCC3(CC2)OCCO3)cc1 | 2.8
FC(F)(F)c1cccc(N2CCN(C(=S)NC3CCCCC3)CC2)c1 | 2.38
Cc1cc(/C=C(\C#N)C(=O)Nc2ccccc2)c(C)n1-c1cccnc1 | 11
CC(C)c1ccc(N(C(=O)CNC(=O)c2ccco2)C(C(=O)NC2CCCC2)c2cccnc2)cc1 (stereo not drawn) | 4.72
CCN(CC)c1ccc(/C=C2/C(=O)c3ccc(C(=O)O)cc3C2=O)cc1 | 10.9
COC(=O)C1CCN(Cc2c(C(=O)N3C[C@@H](C)O[C@@H](C)C3)nc3ccc(Cl)cn23)CC1 | 17.1
COc1ccc(C2=NN(C(=O)C(O)c3ccccc3)C(O)(C(F)(F)F)C2)cc1 (stereo not drawn) | 2.34
CSC1=N/C(=C\c2ccccc2F)C(=O)S1 | 2.11
CCCCC1CCC(C(=O)N(CCCC)c2c(N)n(CCCC)c(=O)[nH]c2=O)CC1 (stereo not drawn) | 0.626
CC1CN(C2CCN(C(=O)COc3ccccc3)CC2)CC(C)O1 (stereo not drawn) | 6.3
CCn1c2ccccc2c2cc(CC(N)=O)ccc21 | 14.1
C1CN(c2nc3nonc3n3nnnc23)CCO1 | 10

Structure (SMILES) | hERG current change (%, negative = inhibition) at 1uM [%]
Cc1ccc(-c2nc3ccc(Cl)cc3c(=O)n2O)cc1 | 27.7
Cc1cccc(-c2sc(Nc3ccccc3)n[n+]2-c2ccc(F)cc2)c1.[Cl-] | 20
Cc1ccc(NC(=O)c2cc(S(=O)(=O)N3CCCCC3)cs2)cc1 | 6.95
Cc1ccc(N(C)C(=O)N2CCN(S(=O)(=O)c3ccc(C)cc3)CC2)cc1 | 7.92
COc1c([N+](=O)[O-])c(=O)oc2ccccc12 | 16.1
CCOc1cc2c(cc1OCC)-n1cccc1C(c1ccc(OC)cc1)NC2.Cl (stereo not drawn) | -16.8
Cc1cccc(N2CCN(S(=O)(=O)c3ccc4c(c3)CC(C)N4C(=O)C3CC3)CC2)c1C (stereo not drawn) | 18.3
NC(=O)C1(N2CCCCC2)CCN(C2CC(=O)NC2=O)CC1 (stereo not drawn) | -5.35
CCN1CCN(c2cc(C)c3cc(NC(=O)c4ccc(C)c(C)c4)ccc3n2)CC1 | 6.61
CC1CC(C(F)(F)F)n2ncc(C(=O)O)c2N1 (stereo not drawn) | 7.08
Cc1cc(C(=O)CSc2nnc3c(Cl)cc(Cl)cn23)c(C)n1C | 14.3
O=c1[nH]nc(Cc2ncc(C(F)(F)F)cc2Cl)c2ccccc12 | 11
NC1=NC(=O)/C(=C/c2cc(Br)c(O)c(Br)c2)S1 | 12.9
COC(=O)c1cccc(NC(=O)CCc2cc(OC)c(OC)c(OC)c2)c1 | 6.83
O=C(Nc1cc(C(=O)N2CCOCC2)cc(C(=O)N2CCOCC2)c1)c1cc(F)c(F)cc1Cl | 10.2
CC(=O)Nc1ccc(NC(=O)c2ccc(NS(=O)(=O)c3cc(C(C)(C)C)cc(C)c3C)cc2)cc1 | 5.11
Cc1nc2nc(-c3cccnc3)[nH]n2c(=O)c1C | 16.7
Cc1ccc(CNC(=O)CCc2ccc(S(=O)(=O)NCC(C)C)cc2)cc1 | -2.28
O=C(Cn1cccc1)Nc1ccc(F)cc1F | -9.4
CCNc1nc(Oc2ccc(OC)cc2)cc(C(F)(F)F)n1 | 10.7
COc1ccc(F)cc1C(=O)C1CCCN(C(=O)c2cccc(N(C)C)c2)C1 (stereo not drawn) | 4.3
